# Results reported in the supplement of paper PMC8728848.
# Some of the results follow.
# Experiments:
# Test in all cases: glycan array binding signal (z-score within array); higher = stronger binding
# Conditions in all cases: glycan notation: IUPAC condensed, linker removed
# Fuc(a1-2)Gal = molecular target: Fuc(a1-2)Gal
# Procedure, shortened: (§1)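 Negative Z-scores can be read as non-binding. The Z-score is calculated within each array and then averaged across arrays of one protein sequence at different concentrations or buffers and across linkers. Arrays, 3228 in all, were curated from the Consortium for Functional Glycomics database and kept only where the protein sequence was available.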
# Fuc(a1-2)Gal(b1-3)GalNAc = molecular target: Fuc(a1-2)Gal(b1-3)GalNAc
# Procedure, shortened: as §1
# [1] = molecular target: Fuc(a1-2)Gal(b1-3)GalNAc(b1-3)Gal
# Procedure, shortened: as §1
# [2] = molecular target: Fuc(a1-2)Gal(b1-3)GalNAc(b1-3)Gal(a1-4)Gal(b1-4)Glc
# Procedure, shortened: as §1
# [3] = molecular target: Fuc(a1-2)Gal(b1-3)GalNAc(b1-3)Gal(b1-4)Glc
# Procedure, shortened: as §1
# [4] = molecular target: Fuc(a1-2)Gal(b1-3)GalNAc(b1-4)[Neu5Ac(a2-3)]Gal(b1-4)Glc
# Procedure, shortened: as §1
# [5] = molecular target: Fuc(a1-2)Gal(b1-3)[Fuc(a1-4)]GlcNAc
# Procedure, shortened: as §1
# Fuc(a1-2)Gal(b1-4)Glc = molecular target: Fuc(a1-2)Gal(b1-4)Glc
# Procedure, shortened: as §1
# Fuc(a1-2)Gal(b1-4)GlcNAc = molecular target: Fuc(a1-2)Gal(b1-4)GlcNAc
# Procedure, shortened: as §1
# [6] = molecular target: Fuc(a1-2)Gal(b1-4)GlcNAc(b1-3)Gal(b1-4)GlcNAc
# Procedure, shortened: as §1
# [7] = molecular target: Fuc(a1-2)Gal(b1-4)GlcNAc(b1-3)Gal(b1-4)GlcNAc(b1-3)Gal(b1-4)GlcNAc
# Procedure, shortened: as §1
# [8] = molecular target: Fuc(a1-2)Gal(b1-4)[Fuc(a1-3)]GalNAc(b1-3)Gal(b1-4)[Fuc(a1-3)]GlcNAc
# Procedure, shortened: as §1
# [9] = molecular target: Fuc(a1-2)Gal(b1-4)[Fuc(a1-3)]GalNAc(b1-3)Gal(b1-4)[Fuc(a1-3)]GlcNAc(b1-3)Gal(b1-4)[Fuc(a1-3)]GalNAc
# Procedure, shortened: as §1
# [10] = molecular target: Fuc(a1-2)Gal(b1-4)[Fuc(a1-3)]GlcNAc
# Procedure, shortened: as §1
# Fuc(a1-2)GlcNAc = molecular target: Fuc(a1-2)GlcNAc
# Procedure, shortened: as §1
# Fuc(a1-2)[Gal(a1-3)]Gal = molecular target: Fuc(a1-2)[Gal(a1-3)]Gal
# Procedure, shortened: as §1
# [11] = molecular target: Fuc(a1-2)[Gal(a1-3)]Gal(b1-3)GlcNAc
# Procedure, shortened: as §1
# [12] = molecular target: Fuc(a1-2)[Gal(a1-3)]Gal(b1-4)Glc
# Procedure, shortened: as §1
# [13] = molecular target: Fuc(a1-2)[Gal(a1-3)]Gal(b1-4)GlcNAc
# Procedure, shortened: as §1
# [14] = molecular target: Fuc(a1-2)[Gal(a1-3)]Gal(b1-4)[Fuc(a1-3)]GlcNAc
# Procedure, shortened: as §1
# [15] = molecular target: Fuc(a1-2)[Gal(a1-4)]Gal(b1-4)GalNAc
# Procedure, shortened: as §1
# [16] = molecular target: Fuc(a1-2)[GalNAc(a1-3)]Gal
# Procedure, shortened: as §1
# [17] = molecular target: Fuc(a1-2)[GalNAc(a1-3)]Gal(b1-3)GlcNAc
# Procedure, shortened: as §1
# [18] = molecular target: Fuc(a1-2)[GalNAc(a1-3)]Gal(b1-4)Glc
# Procedure, shortened: as §1
# [19] = molecular target: Fuc(a1-2)[GalNAc(a1-3)]Gal(b1-4)GlcNAc
# Procedure, shortened: as §1
# [20] = molecular target: Fuc(a1-2)[GalNAc(a1-3)]Gal(b1-4)[Fuc(a1-3)]GlcNAc
# Procedure, shortened: as §1
# [21] = molecular target: Fuc(a1-2)[GalNAc(a1-4)]Gal(b1-4)GlcNAc
# Procedure, shortened: as §1
# Fuc(a1-3)GlcNAc = molecular target: Fuc(a1-3)GlcNAc
# Procedure, shortened: as §1
# [22] = molecular target: Fuc(a1-3)[Gal(b1-4)]GlcNAc
# Procedure, shortened: as §1
# [23] = molecular target: Fuc(a1-3)[Gal(b1-4)]GlcNAc(b1-4)Gal(b1-4)[Fuc(a1-3)]GlcNAc
# Procedure, shortened: as §1
# [24] = molecular target: Fuc(a1-3)[Gal(b1-4)]GlcNAc(b1-4)Gal(b1-4)[Fuc(a1-3)]GlcNAc(b1-4)Gal(b1-4)[Fuc(a1-3)]GlcNAc
# Procedure, shortened: as §1
# [25] = molecular target: Fuc(a1-3)[Gal3S(b1-4)]GlcNAc
# Procedure, shortened: as §1
# [26] = molecular target: Fuc(a1-3)[GalNAc(b1-4)]Gal(b1-4)GlcNAc
# Procedure, shortened: as §1
# Fuc(a1-4)GlcNAc = molecular target: Fuc(a1-4)GlcNAc
# Procedure, shortened: as §1
# Fuc(b1-3)GlcNAc = molecular target: Fuc(b1-3)GlcNAc
# Procedure, shortened: as §1
# Gal(a1-2)Gal = molecular target: Gal(a1-2)Gal
# Procedure, shortened: as §1
# Gal(a1-3)Gal = molecular target: Gal(a1-3)Gal
# Procedure, shortened: as §1
# Gal(a1-3)Gal(b1-3)Glc = molecular target: Gal(a1-3)Gal(b1-3)Glc
# Procedure, shortened: as §1
# Gal(a1-3)Gal(b1-3)GlcNAc = molecular target: Gal(a1-3)Gal(b1-3)GlcNAc
# Procedure, shortened: as §1
# Gal(a1-3)Gal(b1-4)GlcNAc = molecular target: Gal(a1-3)Gal(b1-4)GlcNAc
# Procedure, shortened: as §1
# [27] = molecular target: Gal(a1-3)Gal(b1-4)[Fuc(a1-3)]GalNAc
# Procedure, shortened: as §1
# Gal(a1-3)GlcNAc = molecular target: Gal(a1-3)GlcNAc
# Procedure, shortened: as §1
# [28] = molecular target: Gal(a1-3)[Gal(a1-4)]Gal(b1-4)GlcNAc
# Procedure, shortened: as §1
# Gal(a1-4)Gal(b1-4)Gal = molecular target: Gal(a1-4)Gal(b1-4)Gal
# Procedure, shortened: as §1
# Gal(a1-4)Gal(b1-4)GalNAc = molecular target: Gal(a1-4)Gal(b1-4)GalNAc
# Procedure, shortened: as §1
binder,measurement,setting,value
"HMGB1 (Homo sapiens), P09429 (protein) MGKGDPKKPRGKMSSYAFFVQTCREEHKKKHPDASVNFSEFSKKCSERWKTMSAKEKGKFEDMAKADKARYEREMKTYIPPKGETKKKFKDPNAPKRPPSAFFLFCSEYRPKIKGEHPGLSIGDVAKKLGEMWNNTAADDKQPYEKKAAKLKEKYEKDIAAYRAKGKPDAAKKGVVKAEKSKKKKEEEEDEEDEEDEEEEEDEEDEDEEEDDDDE",glycan array binding signal (z-score),Fuc(a1-2)Gal,0.016
same,glycan array binding signal (z-score),Fuc(a1-2)Gal(b1-3)GalNAc,-0.236
same,glycan array binding signal (z-score),[1],-0.303
same,glycan array binding signal (z-score),[2],-0.385
same,glycan array binding signal (z-score),[3],-0.292
same,glycan array binding signal (z-score),[4],-0.223
same,glycan array binding signal (z-score),[5],-0.04
same,glycan array binding signal (z-score),Fuc(a1-2)Gal(b1-4)Glc,-0.488
same,glycan array binding signal (z-score),Fuc(a1-2)Gal(b1-4)GlcNAc,-0.496
same,glycan array binding signal (z-score),[6],-0.004
same,glycan array binding signal (z-score),[7],-0.311
same,glycan array binding signal (z-score),[8],-0.246
same,glycan array binding signal (z-score),[9],-0.206
same,glycan array binding signal (z-score),[10],-0.384
same,glycan array binding signal (z-score),Fuc(a1-2)GlcNAc,-0.464
same,glycan array binding signal (z-score),Fuc(a1-2)[Gal(a1-3)]Gal,-0.383
same,glycan array binding signal (z-score),[11],-0.211
same,glycan array binding signal (z-score),[12],-0.444
same,glycan array binding signal (z-score),[13],-0.3
same,glycan array binding signal (z-score),[14],-0.413
same,glycan array binding signal (z-score),[15],-0.472
same,glycan array binding signal (z-score),[16],-0.309
same,glycan array binding signal (z-score),[17],-0.442
same,glycan array binding signal (z-score),[18],-0.341
same,glycan array binding signal (z-score),[19],-0.269
same,glycan array binding signal (z-score),[20],-0.324
same,glycan array binding signal (z-score),[21],-0.433
same,glycan array binding signal (z-score),Fuc(a1-3)GlcNAc,2.9
same,glycan array binding signal (z-score),[22],-0.398
same,glycan array binding signal (z-score),[23],-0.39
same,glycan array binding signal (z-score),[24],-0.45
same,glycan array binding signal (z-score),[25],-0.376
same,glycan array binding signal (z-score),[26],-0.425
same,glycan array binding signal (z-score),Fuc(a1-4)GlcNAc,-0.341
same,glycan array binding signal (z-score),Fuc(b1-3)GlcNAc,-0.461
same,glycan array binding signal (z-score),Gal(a1-2)Gal,-0.439
same,glycan array binding signal (z-score),Gal(a1-3)Gal,-0.295
same,glycan array binding signal (z-score),Gal(a1-3)Gal(b1-3)Glc,-0.425
same,glycan array binding signal (z-score),Gal(a1-3)Gal(b1-3)GlcNAc,-0.403
same,glycan array binding signal (z-score),Gal(a1-3)Gal(b1-4)GlcNAc,-0.418
same,glycan array binding signal (z-score),[27],-0.425
same,glycan array binding signal (z-score),Gal(a1-3)GlcNAc,-0.477
same,glycan array binding signal (z-score),[28],-0.393
same,glycan array binding signal (z-score),Gal(a1-4)Gal(b1-4)Gal,-0.086
same,glycan array binding signal (z-score),Gal(a1-4)Gal(b1-4)GalNAc,-0.309
